# Source: the supplement of paper PMC8728848
# Some of the results follow.
# B1: Malectin (Xenopus laevis), Q6INX3 (protein)
# chain: SGLADKVIWAVNAGGESHVDVHGIHYRKDPLEGRVGRASDYGMKLPILRSNPEDQVLYQTERYNEDSFGYDIPIKEEGEYVLVLKFAEVYFAQSQQKVFDVRVNGHTVVKDLDIFDRVGHSTAHDEIIPISIKKGKLSVQGEVSTFTGKLSVEFVKGYYDNPKVCALFIMKGTADDVPMLQPHPGLE
# Key:
# Assay in all cases: glycan array binding signal (z-score within array); higher = stronger binding
# Details in all cases: glycan notation: IUPAC condensed, linker removed
# Gal(b1-4)GlcNAc(b1-3)Fuc = biological target: Gal(b1-4)GlcNAc(b1-3)Fuc
# Method in brief: (§1)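 Columns mapping to the same glycan were averaged after glycan names were converted to IUPAC-condensed notation. The data come from 3228 arrays in the Consortium for Functional Glycomics database, limited to those with an available protein sequence. Binding is reported as a within-array Z-score averaged across arrays of one protein sequence and across linkers.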
# [1] = biological target: Gal(b1-4)GlcNAc(b1-3)Gal(b1-4)Glc
# Method in brief: as §1
# [2] = biological target: Gal(b1-4)GlcNAc(b1-3)Gal(b1-4)GlcNAc(b1-3)Gal(b1-4)Glc
# Method in brief: as §1
# [3] = biological target: Gal(b1-4)GlcNAc(b1-3)[Fuc(a1-3)[Gal(b1-4)]GlcNAc(b1-6)]Gal(b1-4)Glc
# Method in brief: as §1
# [4] = biological target: Gal(b1-4)GlcNAc(b1-3)[Gal(b1-4)GlcNAc(b1-6)]Gal(b1-4)Glc
# Method in brief: as §1
# [5] = biological target: Gal(b1-4)GlcNAc(b1-3)[Gal(b1-4)GlcNAc(b1-6)]Gal(b1-4)GlcNAc(b1-3)Gal(b1-4)Glc
# Method in brief: as §1
# [6] = biological target: Gal(b1-4)GlcNAc(b1-3)[Gal(b1-4)GlcNAc(b1-6)]Gal(b1-4)GlcNAc(b1-3)[Gal(b1-4)GlcNAc(b1-6)]Gal(b1-4)GlcNAc(b1-3)Gal(b1-4)Glc
# Method in brief: as §1
# [7] = biological target: Gal(b1-4)GlcNAc(b1-3)[Gal(b1-4)GlcNAc(b1-6)]Gal(b1-4)GlcNAc(b1-3)[Gal(b1-4)GlcNAc(b1-6)]Gal(b1-4)GlcNAc(b1-3)[Gal(b1-4)GlcNAc(b1-6)]Gal(b1-4)GlcNAc(b1-3)Gal(b1-4)Glc
# Method in brief: as §1
# [8] = biological target: Gal(b1-4)GlcNAc(b1-3)[Gal(b1-4)GlcNAc(b1-6)]Gal(b1-4)GlcNAc(b1-3)[Gal(b1-4)GlcNAc(b1-6)]Gal(b1-4)GlcNAc(b1-3)[Gal(b1-4)GlcNAc(b1-6)]Gal(b1-4)GlcNAc(b1-3)[Gal(b1-4)GlcNAc(b1-6)]Gal(b1-4)GlcNAc(b1-3)Gal(b1-4)Glc
# Method in brief: as §1
# Gal(b1-6)GalNAc = biological target: Gal(b1-6)GalNAc
# Method in brief: as §1
# [9] = biological target: Gal3S(b1-3)GalNAc(b1-4)Gal3S(b1-4)Glc
# Method in brief: as §1
# [10] = biological target: Gal3S(b1-3)[Fuc(a1-4)]GlcNAc
# Method in brief: as §1
# [11] = biological target: Gal3S(b1-3)[Fuc(a1-4)]GlcNAc(b1-3)Gal(b1-4)Glc
# Method in brief: as §1
# Gal3S(b1-4)Glc = biological target: Gal3S(b1-4)Glc
# Method in brief: as §1
# Gal3S(b1-4)GlcNAc = biological target: Gal3S(b1-4)GlcNAc
# Method in brief: as §1
# [12] = biological target: Gal3S(b1-4)GlcNAc(b1-3)Gal
# Method in brief: as §1
# [13] = biological target: Gal6S(b1-3)[Fuc(a1-4)]GlcNAc(b1-3)Gal(b1-4)Glc
# Method in brief: as §1
# GalNAc(a1-3)Gal(b1-4)Glc = biological target: GalNAc(a1-3)Gal(b1-4)Glc
# Method in brief: as §1
# GalNAc(a1-3)GalNAc = biological target: GalNAc(a1-3)GalNAc
# Method in brief: as §1
# GalNAc(b1-4)Gal(b1-4)Glc = biological target: GalNAc(b1-4)Gal(b1-4)Glc
# Method in brief: as §1
# [14] = biological target: GalNAc(b1-4)Gal3S(b1-4)Glc
# Method in brief: as §1
# [15] = biological target: GalNAc3S(b1-4)Gal3S(b1-4)Glc
# Method in brief: as §1
# Glc(a1-2)Glc = biological target: Glc(a1-2)Glc
# Method in brief: as §1
# [16] = biological target: Glc(a1-2)Glc(a1-3)Glc(a1-3)Man(a1-2)Man(a1-2)Man(a1-3)[Man(a1-3)[Man(a1-6)]Man(a1-6)]Man(b1-4)GlcNAc
# Method in brief: as §1
# Glc(a1-3)Glc = biological target: Glc(a1-3)Glc
# Method in brief: as §1
# [17] = biological target: Glc(a1-3)Glc(a1-3)Man(a1-2)Man(a1-2)Man(a1-3)[Man(a1-3)[Man(a1-6)]Man(a1-6)]Man(b1-4)GlcNAc
# Method in brief: as §1
# [18] = biological target: Glc(a1-3)Man(a1-2)Man(a1-2)Man(a1-3)[Man(a1-2)Man(a1-3)[Man(a1-2)Man(a1-6)]Man(a1-6)]Man(b1-4)GlcNAc(b1-4)GlcNAc
# Method in brief: as §1
# Glc(a1-4)Glc = biological target: Glc(a1-4)Glc
# Method in brief: as §1
# Glc(a1-4)Glc(a1-4)Glc = biological target: Glc(a1-4)Glc(a1-4)Glc
# Method in brief: as §1
# [19] = biological target: Glc(a1-4)Glc(a1-4)Glc(a1-4)Glc
# Method in brief: as §1
# [20] = biological target: Glc(a1-4)Glc(a1-4)Glc(a1-4)Glc(a1-4)Glc
# Method in brief: as §1
# [21] = biological target: Glc(a1-4)Glc(a1-4)Glc(a1-4)Glc(a1-4)Glc(a1-4)Glc
# Method in brief: as §1
# [22] = biological target: Glc(a1-4)Glc(a1-4)Glc(a1-4)Glc(a1-4)Glc(a1-4)Glc(a1-4)Glc
# Method in brief: as §1
# Glc(a1-6)Glc = biological target: Glc(a1-6)Glc
# Method in brief: as §1
# [23] = biological target: Glc(a1-6)Glc(a1-4)Glc(a1-4)Glc
# Method in brief: as §1
# Glc(a1-6)Glc(a1-6)Glc = biological target: Glc(a1-6)Glc(a1-6)Glc
# Method in brief: as §1
# [24] = biological target: Glc(a1-6)Glc(a1-6)Glc(a1-6)Glc
# Method in brief: as §1
# [25] = biological target: Glc(a1-6)Glc(a1-6)Glc(a1-6)Glc(a1-6)Glc
# Method in brief: as §1
# [26] = biological target: Glc(a1-6)Glc(a1-6)Glc(a1-6)Glc(a1-6)Glc(a1-6)Glc
# Method in brief: as §1
# [27] = biological target: Glc(a1-6)Glc(a1-6)Glc(a1-6)Glc(a1-6)Glc(a1-6)Glc(a1-6)Glc
# Method in brief: as §1
# Glc(b1-3)Glc = biological target: Glc(b1-3)Glc
# Method in brief: as §1
# Glc(b1-3)Glc(b1-3)Glc = biological target: Glc(b1-3)Glc(b1-3)Glc
# Method in brief: as §1
# [28] = biological target: Glc(b1-3)Glc(b1-3)Glc(b1-3)Glc
# Method in brief: as §1
# [29] = biological target: Glc(b1-3)Glc(b1-3)Glc(b1-3)Glc(b1-3)Glc
# Method in brief: as §1
# [30] = biological target: Glc(b1-3)Glc(b1-3)Glc(b1-3)Glc(b1-3)Glc(b1-3)Glc
# Method in brief: as §1
binder,measurement,setting,value
B1,glycan array binding signal (z-score),Gal(b1-4)GlcNAc(b1-3)Fuc,-0.072
same,glycan array binding signal (z-score),[1],-0.073
same,glycan array binding signal (z-score),[2],-0.076
same,glycan array binding signal (z-score),[3],-0.073
same,glycan array binding signal (z-score),[4],-0.075
same,glycan array binding signal (z-score),[5],-0.076
same,glycan array binding signal (z-score),[6],-0.067
same,glycan array binding signal (z-score),[7],-0.057
same,glycan array binding signal (z-score),[8],-0.066
same,glycan array binding signal (z-score),Gal(b1-6)GalNAc,-0.072
same,glycan array binding signal (z-score),[9],-0.076
same,glycan array binding signal (z-score),[10],-0.073
same,glycan array binding signal (z-score),[11],-0.076
same,glycan array binding signal (z-score),Gal3S(b1-4)Glc,-0.075
same,glycan array binding signal (z-score),Gal3S(b1-4)GlcNAc,-0.074
same,glycan array binding signal (z-score),[12],-0.076
same,glycan array binding signal (z-score),[13],-0.075
same,glycan array binding signal (z-score),GalNAc(a1-3)Gal(b1-4)Glc,-0.072
same,glycan array binding signal (z-score),GalNAc(a1-3)GalNAc,-0.076
same,glycan array binding signal (z-score),GalNAc(b1-4)Gal(b1-4)Glc,-0.072
same,glycan array binding signal (z-score),[14],-0.072
same,glycan array binding signal (z-score),[15],-0.076
same,glycan array binding signal (z-score),Glc(a1-2)Glc,-0.225
same,glycan array binding signal (z-score),[16],0.052
same,glycan array binding signal (z-score),Glc(a1-3)Glc,0.041
same,glycan array binding signal (z-score),[17],8.46
same,glycan array binding signal (z-score),[18],-0.171
same,glycan array binding signal (z-score),Glc(a1-4)Glc,-0.012
same,glycan array binding signal (z-score),Glc(a1-4)Glc(a1-4)Glc,-0.216
same,glycan array binding signal (z-score),[19],-0.148
same,glycan array binding signal (z-score),[20],-0.19
same,glycan array binding signal (z-score),[21],-0.148
same,glycan array binding signal (z-score),[22],0.01
same,glycan array binding signal (z-score),Glc(a1-6)Glc,-0.214
same,glycan array binding signal (z-score),[23],-0.06
same,glycan array binding signal (z-score),Glc(a1-6)Glc(a1-6)Glc,-0.212
same,glycan array binding signal (z-score),[24],0.133
same,glycan array binding signal (z-score),[25],0.876
same,glycan array binding signal (z-score),[26],1.32
same,glycan array binding signal (z-score),[27],-0.065
same,glycan array binding signal (z-score),Glc(b1-3)Glc,-0.223
same,glycan array binding signal (z-score),Glc(b1-3)Glc(b1-3)Glc,-0.223
same,glycan array binding signal (z-score),[28],-0.218
same,glycan array binding signal (z-score),[29],-0.196
same,glycan array binding signal (z-score),[30],-0.092
